Data on 86 sequences can be found in the supplement of paper PMC3334620.

Whole data set: some 33,000 sequences, median “E-score (-0.5 to 0.5)” near -0.035, cut for the highest 2% near 0.34. This is one part of the list.

The target of the test is T1, Mot3 (UniProt P54785).
T1 sequence: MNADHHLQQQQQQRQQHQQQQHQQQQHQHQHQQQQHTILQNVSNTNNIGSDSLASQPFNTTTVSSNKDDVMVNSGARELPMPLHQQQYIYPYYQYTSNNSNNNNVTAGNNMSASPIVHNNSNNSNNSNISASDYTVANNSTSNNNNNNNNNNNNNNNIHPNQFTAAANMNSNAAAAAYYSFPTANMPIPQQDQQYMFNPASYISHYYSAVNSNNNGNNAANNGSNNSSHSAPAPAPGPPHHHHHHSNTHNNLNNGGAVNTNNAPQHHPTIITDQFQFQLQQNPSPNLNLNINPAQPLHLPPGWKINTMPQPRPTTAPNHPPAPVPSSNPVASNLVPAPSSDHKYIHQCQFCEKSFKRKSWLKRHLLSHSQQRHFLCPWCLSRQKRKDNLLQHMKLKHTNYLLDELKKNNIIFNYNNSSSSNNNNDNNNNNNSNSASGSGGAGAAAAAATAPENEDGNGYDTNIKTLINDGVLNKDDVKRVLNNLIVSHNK
As to the kind of experiment: PBM E-score (8-mer binding enrichment) (E-score (-0.5 to 0.5)); higher = stronger / more preferred TF binding; most listed sequences are background and not binding sites. Particulars: protein concentration: 200 nM; construct: GST-full length. The procedure, abridged: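 PURExpress in vitro transcription/translation supplied GST-tagged yeast transcription factors, either full-length or DNA-binding domain. Applied at about 100-200 nM to universal all-10-mer Agilent arrays double-stranded by primer extension, the bound protein was detected with fluorescent anti-GST. E-scores, modified Wilcoxon-Mann-Whitney statistics, were given by the Universal PBM Analysis Suite to ungapped eight-base words pooled with their reverse complements after masliner normalisation.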
Regarding TCCTTAAA, the “PBM E-score” value was found to be 0.118.

On to CTGCTCCC, for which the “PBM E-score” value is -0.199.

Regarding AGTACCCA, the “PBM E-score” value stood at 0.0368.

With CACCCTCA, the “PBM E-score” value is -0.23.

As to AAAAGCTA, the “PBM E-score” value was -0.0237.

In the case of ATAAAGTA, the “PBM E-score” value was found to be 0.189.

As for AAACCTGG, the “PBM E-score” value was found to be 0.0922.

CACGAGCA: the “PBM E-score” value is -0.0469.

Consider CGTGAGAC, for which the “PBM E-score” value is -0.0998.

On to GATCAACA, for which the “PBM E-score” value turned out to be 0.218.

As for AATCTCGG, the “PBM E-score” value was -0.0615.

For ATCCGCGC, the “PBM E-score” value is -0.0348.

Regarding TCCGCAGA, the “PBM E-score” value was -0.294.

In the case of ATGTTACG, the “PBM E-score” value was determined as 0.228.

Regarding ACTCGCAA, the “PBM E-score” value worked out at 0.127.

For CAGCCTCC, the “PBM E-score” value is -0.249.

With AGAGGAAG, the “PBM E-score” value is -0.112.

As to CTCCAAGC, the “PBM E-score” value stood at 0.0273.

Turning to GGGCGCGA, the “PBM E-score” value is -0.105.

Consider CATACATG, for which the “PBM E-score” value turned out to be 0.291.

For the sequence AGCCCCGG, the “PBM E-score” value was -0.135.

Take GGCCTCAA: the “PBM E-score” value was 0.00845.

Regarding CCCGCGGC, the “PBM E-score” value is -0.266.

Take CCCTCAGC: the “PBM E-score” value was -0.323.

As to AAATCACG, the “PBM E-score” value is 0.0517.

Take GGCCCCCA: the “PBM E-score” value was -0.276.

As for CTACTAGC, the “PBM E-score” value was 0.0344.

Take ACGACCCC: the “PBM E-score” value was -0.219.

CAGATGAC: the “PBM E-score” value is -0.0736.

With ACAACAGT, the “PBM E-score” value is -0.0268.

As for AACGGCAT, the “PBM E-score” value is -0.00767.

CTCAGCGC: the “PBM E-score” value was -0.0661.

As to GACTTACC, the “PBM E-score” value is -0.0893.

Turning to GGGGGGTA, the “PBM E-score” value was -0.204.

For AACAATTG, the “PBM E-score” value came to 0.121.

Take ACTCAAAC: the “PBM E-score” value was found to be 0.0499.

With CACCTAGC, the “PBM E-score” value is -0.153.

Take GTGATATA: the “PBM E-score” value was -0.122.

Consider ACTGAGTC, for which the “PBM E-score” value was -0.0968.

With ATGAAGCC, the “PBM E-score” value is -0.0612.

For TCTTCACA, the “PBM E-score” value is 0.169.

For the sequence CGCACAAC, the “PBM E-score” value was 0.0497.

ATCTCCGA: the “PBM E-score” value was -0.0589.

As for ATCCCGGG, the “PBM E-score” value is -0.052.

With CCGAGTAG, the “PBM E-score” value was -0.0936.

With CAGCTGAA, the “PBM E-score” value is -0.0396.

Consider AGGAATTG, for which the “PBM E-score” value was determined as 0.053.

As for GGCCGCGA, the “PBM E-score” value was -0.285.

Turning to GACGCTAC, the “PBM E-score” value was -0.0985.

Take ACGGAAAG: the “PBM E-score” value amounted to 0.0318.

Consider GATGCTGA, for which the “PBM E-score” value was -0.305.

As to CCAACACG, the “PBM E-score” value amounted to 0.299.

As to GCCTGTCC, the “PBM E-score” value worked out at 0.034.

Regarding CGGACGAG, the “PBM E-score” value was -0.0659.

With AATGAATA, the “PBM E-score” value worked out at 0.00325.

For the sequence GTACCGCA, the “PBM E-score” value is -0.00578.

ACTAACCT: the “PBM E-score” value came out at 0.0108.

On to CTTACCAA, for which the “PBM E-score” value amounted to 0.0403.

With CTATACCC, the “PBM E-score” value is -0.0192.

For the sequence TGTCACAA, the “PBM E-score” value worked out at 0.08.

Regarding GCCCGCGA, the “PBM E-score” value was -0.199.

Regarding CAGGGGGC, the “PBM E-score” value was -0.249.

For the sequence AGCGGTAG, the “PBM E-score” value was -0.173.

Consider CCGCGTTC, for which the “PBM E-score” value came to 0.0486.

Regarding GACGATGA, the “PBM E-score” value amounted to 0.0203.

Turning to AAAATCGG, the “PBM E-score” value was -0.0815.

Consider ACCTGTAT, for which the “PBM E-score” value came to 0.266.

Regarding GTCCTGGA, the “PBM E-score” value is -0.133.

For CGCGATGC, the “PBM E-score” value is -0.0852.

In the case of CAAATATA, the “PBM E-score” value stood at 0.171.

As to CAGGACGC, the “PBM E-score” value was found to be 0.0508.

Regarding TGTGTCAA, the “PBM E-score” value was 0.296.

On to CATATCGG, for which the “PBM E-score” value is -0.148.

For the sequence ACAGGTGA, the “PBM E-score” value came to 0.0111.

For the sequence AGGGTCCG, the “PBM E-score” value was -0.269.

As to AGTTCCCA, the “PBM E-score” value is -0.14.

With CTTCTCCA, the “PBM E-score” value was -0.137.

On to TAAGCAAA, for which the “PBM E-score” value turned out to be 0.15.

On to CAGTACCG, for which the “PBM E-score” value was -0.224.

In the case of GTTTGAGA, the “PBM E-score” value was 0.0186.

For GCAACGGA, the “PBM E-score” value was -0.0353.

For the sequence ACTGGCCG, the “PBM E-score” value is -0.258.

Turning to AGGATGTA, the “PBM E-score” value stood at 0.311.

Regarding GACGTTTA, the “PBM E-score” value is -0.0146.

Take CTGTCTAC: the “PBM E-score” value worked out at 0.0522.

As for GAAAAATC, the “PBM E-score” value stood at 0.0298.
